Target: Cy3 conjugated G-actin (UniProt P68135, Cy3 conjugated)
Assay: single molecule TIRF microscopy

koff: 2.55 s⁻¹
B1: GFP-βRat CaMKII holoenzyme (enzyme)
chain: MATTVTCTRFTDEYQLYEDIGKGAFSVVRRCVKLCTGHEYAAKIINTKKLSARDHQKLEREARICRLLKHSNIVRLHDSISEEGFHYLVFDLVTGGELFEDIVAREYYSEADASHCIQQILEAVLHCHQMGVVHRDLKPENLLLASKCKGAAVKLADFGLAIEVQGDQQAWFGFAGTPGYLSPEVLRKEAYGKPVDIWACGVILYILLVGYPPFWDEDQHKLYQQIKAGAYDFPSPEWDTVTPEAKNLINQMLTINPAKRITAHEALKHPWVCQRSTVASMMHRQETVECLKK[here about 20 residues without letters]VGRQTTAPATMSTAASGTTMGLVEQAKSLLNKKADGVKPQTNSTKNSSAITSPKGSLPPAALEPQTTVIHNPVDGIKESSDSTNTTIEDEDAKARKQEIIKTTEQLIEAVNNGDFEAYAKICDPGLTSFEPEALGNLVEGMDFHRFYFENLLAKNSKPIHTTILNPHVHVIGEDAACIAYIRLTQYIDGQGRPRTSQSEETRVWHRPDGKWQNVHFHCSGAPVAPLQ
